# Measurements published in PubChem BioAssay (Tox21).
# Inconclusive results are not listed. Calls follow the shape of the dose curve; as a rule, active = well fitted curve in the direction sought with a large enough effect in the repeat runs; inconclusive = weak or mixed curves; inactive = no such curve, though single readings can be large; an effect the other way counts as inactive or inconclusive. Some structures have more than one record in an assay (separate samples or runs), and their calls can disagree. A number of entries come with more than one value. Only these are listed. There may be further records. The values listed for one entry are repeated measurements across runs, samples, wells, individuals or studies. Records carry a tag for their origin. A, B and so on number the origins entry by entry.
# How the values were obtained:
# [1] = qHTS assay to identify small molecule antagonists of the progesterone receptor (PR) signaling pathway - cell viability counter screen (AID 1346798); also: nearly all actives have a fitted effect of over 50% in size
# How it was run: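 In the same plates used for the beta-lactamase readout, cell viability of compound- and R5020-treated PR-UAS-bla HEK293T cells (16 hr, 37C) was assessed by CellTiter-Glo luminescence.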
# [2] = A CellTox Green Cytotoxicity Assay to monitor cytotoxicity in HEK293 cells - 24 hour (AID 1224875); also: nearly all actives have a fitted effect of over 45% in size
# How it was run: (§1)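 Cytotoxicity was tracked continuously in HEK293 cells by a DNA-binding dye excluded from viable cells. Compounds were transferred in DMSO 5 h after seeding; fluorescence was recorded at intervals up to 40 h.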
# [3] = qHTS assay to identify small molecule antagonists of the glucocorticoid receptor (GR) signaling pathway - cell viability counter screen (AID 720693); also: nearly all actives have a fitted effect of over 55% in size
# [4] = qHTS assay to identify small molecule antagonists of the thyroid receptor (TR) signaling pathway (AID 743065); also: nearly all actives have a fitted effect of over 55% in size
# How it was run: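 GH3.TRE-Luc rat pituitary cells (two TREs driving luciferase) were dosed with compound, then stimulated with 1 nM T3 (final) for 23.5 h at 37 C. ONE-Glo luminescence was the read-out, with CellTiter-Fluor fluorescence as the cytotoxicity counter-screen.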
# [5] = A CellTox Green Cytotoxicity Assay to monitor cytotoxicity in HEK293 cells - 16 hour (AID 1224888); also: nearly all actives have a fitted effect of over 35% in size
# How it was run: as §1
# Potency is read from the fitted curve at half-maximal effect.
smiles,measurement,setting,value
O=C(O)c1cc(=O)[nH]c(=O)[nH]1,Potency,[1],inactive [sample A] and active: 26.6 µM [sample B]
O=C1CCc2ccccc2O1,Potency,[2],inactive [sample A] and active: 21.9 µM [sample B]
C1CN(SSN2CCOCC2)CCO1,Potency,[2],active: 48.5 µM [sample A] and inactive [sample B]
CC/C(=C(/CC)c1ccc(O)cc1)c1ccc(O)cc1,Potency,[3],inactive [sample A] and active: 48.6 µM [sample B] and active: 54.9 µM [sample C]
CC1=CC(C)(C)Nc2ccccc21,Potency,[4],inactive [sample A] and active: 29.8 µM [sample B]
COc1cc([C@H]2Oc3cc([C@H]4Oc5cc(O)cc(O)c5C(=O)[C@@H]4O)ccc3O[C@@H]2CO)ccc1O,Potency,[2],inactive [sample A] and active: 16.9 µM [sample B]
same,Potency,[5],inactive [sample A] and active: 16.9 µM [sample B]
CC(C)(C)c1cccc(C(C)(C)C)c1O,Potency,[2],active: 53.7 µM [sample A] and inactive [sample B]
